Each structure is given as a SMILES string. The campaign covered roughly 340,000 compounds. About 6,900 (2%) were called active. Cut-off read from the data, not from the text of the source: active = inhibition above about 30%; inactive = below that, where a call was filed. The entries are a selection whose mix differs from that of the whole data set. Entries without a call were filed so in the source.

In general, inhibition refers to the relative decrease from the control value, in per cent.

This test concerns the target D(2) dopamine receptor (Homo sapiens) (UniProt P14416). The test is described as follows: HTS Assay for Allosteric Antagonists of the Human D2 Dopamine Receptor: Primary Screen for Antagonists. Note: 0% is about no effect. To be noted: HEK293 TREx D2 cells, calcium flux, dopamine EC80; at 10 µM; stronger effect = higher value. Put shortly: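 Overnight-induced (tetracycline, 30 C) HEK293 T-REx cells carrying force-coupled D2 receive a no-wash calcium dye, then compound, then EC80 dopamine at 180 s; signals are read kinetically throughout.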
UniProt P14416, sequence (P14416 whole entry, looked up): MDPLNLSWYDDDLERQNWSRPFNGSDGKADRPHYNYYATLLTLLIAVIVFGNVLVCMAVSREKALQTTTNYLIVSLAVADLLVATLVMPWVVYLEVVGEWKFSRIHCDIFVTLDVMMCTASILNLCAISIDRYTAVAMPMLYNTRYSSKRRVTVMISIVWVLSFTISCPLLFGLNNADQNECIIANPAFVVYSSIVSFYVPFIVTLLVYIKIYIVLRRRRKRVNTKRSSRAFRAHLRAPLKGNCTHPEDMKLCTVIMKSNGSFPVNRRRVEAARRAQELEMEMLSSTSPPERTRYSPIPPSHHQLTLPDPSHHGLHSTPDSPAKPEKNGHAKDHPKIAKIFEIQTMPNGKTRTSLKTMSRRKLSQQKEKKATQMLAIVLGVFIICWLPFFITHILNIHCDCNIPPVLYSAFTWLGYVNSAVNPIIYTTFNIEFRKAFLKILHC
(In general: Calcium assays in cells follow changes in intracellular calcium, usually with a dye or a luminescent sensor.)
As for `CCOc1ccccc1C(=O)N1CCc2cc(OC)c(OC)cc2C1COc1ccc(OC)cc1` (stereo not drawn), the inhibition is -4.37%.
In the case of `Cc1nn(-c2ccccc2)c(OC(=O)c2ccc(Cl)cc2)c1S(=O)(=O)c1ccccc1`, the inhibition was -1.49%.
The value for `COc1ccc(C2=C(C)C(=NCCCN3CCN(c4cc(Cl)ccc4C)CC3)NS2(=O)=O)cc1` was 3.03%; that for `Cc1ccc(NC(=O)Cn2cc(S(=O)(=O)Cc3cccc(Cl)c3)c3ccccc32)cc1C` was 1.33%.
Then `COc1ccc(-n2ncc(C(=O)Nc3ccc4c(c3)OCO4)c2C2CCN(C(=O)OC(C)(C)C)CC2)cc1`, with -5.16%; and `COc1ccc2oc(-c3ccc(C)c(NC(=O)c4ccc5c(c4)OCCO5)c3)nc2c1`, with 6.83%.
The value for `O=C(NCc1ccccc1Br)c1ccc2c(c1)nc1n2CCOC1` was -3.88%; that for `O=C(CCC1N=C2c3ccccc3N=C(SCc3ccccc3F)N2C1=O)NCc1ccccc1` (stereo not drawn) was 7.41%; that for `CCCNC(=O)COCc1cc(-c2ccc(F)cc2)on1` was 9.87%.
In the case of `Cc1ccc(CNC(=O)CN2C(=O)CSc3c2c(C)nn3-c2ccccc2)cc1`, the inhibition is -12.5%.
Then `COc1ccc(NC(=O)c2oc3ccccc3c2NC(=O)Cc2coc3cc(C)ccc23)cc1`, with 4.87%; and `COc1ccc(C)cc1NC(=O)CCNC(=O)Cn1ccc2ccccc2c1=O`, with 6.02%; and `CN1C(=O)Cc2cc(S(=O)(=O)CCC(=O)Nc3ccc(Cl)c(C(F)(F)F)c3)ccc21`, with 14%.
Take `CCOC(=O)c1c(C)[nH]c(CCC(=O)NCc2cccc(C)c2)c1C`: the inhibition turned out to be 5.63%.
The value for `O=[N+]([O-])c1ccc(C(O)CN2CCN(c3ccccc3)CC2)cc1` (stereo not drawn) was active: 46.4%.
Take `Cc1cc(F)ccc1NC(=O)C1CCN(C(=O)c2cnn(-c3ccccc3)c2-n2cccc2)CC1`: the inhibition is -1.68%.
Then `COC(=O)c1ccccc1NC(=O)c1ccc(-c2nc(COc3ccccc3)c(C)o2)cc1`, with -11.1%; and `O=C(CCC1N=C2c3ccccc3N=C(SCc3cccc(F)c3)N2C1=O)NCCc1ccccc1` (stereo not drawn), with 12.9%; and `Cc1cccc(C)c1NC(=O)Cn1nnc(C(=O)Nc2c(C)cccc2C)c1N`, with 7.55%.
Turning to `CCCCc1nn2c(=O)cc(COC(=O)c3cccc(Cl)c3)nc2s1`, the inhibition came to 8.64%.
The value for `CC1(c2ccccc2Cl)NC(=O)N(CC(=O)Nc2ccc(N3CCCCC3)cc2)C1=O` (stereo not drawn) was active: 34.7%; that for `CCCCN(CC)CCCNC(=S)Nc1ccc2nc3n(c(=O)c2c1)CCCCC3` was active: 59.7%.
The value for `Cc1cc(OCC(=O)Nc2c(C(=O)c3ccccc3)oc3ccccc23)cc(C)c1Cl` was -1.21%.
Then `CCN1CCN(CCCNC(=O)c2cnn(-c3ccccc3Cl)c2C2CCN(C(=O)OC(C)(C)C)CC2)CC1`, with 6.47%; and `CCOC(=O)C1CCCN(c2c(C(=O)c3ccc(OCC)cc3)cnc3ccccc23)C1` (stereo not drawn), with -1.87%; and `Cc1nn(C)c2c1c(-c1ccccc1)cc(=O)n2Cc1ccccc1C#N`, with 7.24%.
Take `O=C1c2oc3ccccc3c(=O)c2C(c2ccc(O)cc2)N1Cc1ccc2c(c1)OCO2` (stereo not drawn): the inhibition was -6.68%.
The value for `O=C(c1ccc(Cl)cc1)N1CCC(c2nc3ccccc3o2)CC1` was 7.02%.
The value for `CCOc1ccc(NC(=O)c2c(NCc3ccc(C)o3)sc3c2CCCCC3)cc1` was 1.18%.
Consider `Cc1ccc(CNC(=O)CN2C(=O)CSc3ccc(S(=O)(=O)N(C)C)cc32)cc1`, for which the inhibition came to 6.74%.
Regarding `CCn1cc(C(=O)OCC(=O)Nc2cc(OC)cc(OC)c2)c(=O)c2ccc(C)nc21`, the inhibition was -15.6%.
For `CC(=O)n1nc(-c2cccnc2)nc1NCc1ccc(F)cc1`, the inhibition is -2.71%.
For the molecule `O=C(OCc1cc(=O)n2nc(-c3cccs3)sc2n1)c1ccccc1`, the inhibition is -0.574%.
Then `COc1ccc(NC(=O)c2c(NCc3cccs3)sc3c2CCCC3)c(OC)c1`, with -0.435%; and `COC(=O)C(CCSC)NC(=O)Cn1ncc2c([nH]c3ccccc32)c1=O` (stereo not drawn), with 1.15%.
The value for `CCCOc1ccc(CNC(=O)c2ccc3c(c2)N(Cc2ccccc2)CCS3)cc1` was 3.83%; that for `COc1cccc2c1cc1c(=O)n(CC(=O)N3CCN(c4cccc(Cl)c4)CC3)nc(C)n12` was -8.06%.
As for `O=C(COC(=O)COc1ccccc1)NC12CC3CC(CC(C3)C1)C2`, the inhibition is active: 33.7%.
Then `CCCCNS(=O)(=O)c1ccc(N2CCCCS2(=O)=O)cc1`, with -17%; and `O=C(Nc1ccc2nc(SCCOc3ccccc3)sc2c1)c1ccccc1F`, with -17.3%.
The value for `CCOC(=O)c1c(C)c(-c2ccccc2)n(CC(=O)Nc2ccc(OCC)cc2)c1C` was -1.55%; that for `CCc1ccc(N(CC)C(=O)CCn2cnc3onc(-c4ccc(F)cc4)c3c2=O)cc1` was -21.7%.
Then `CCCNC(=O)Cn1c(=O)/c(=C\c2ccc(-c3ccc([N+](=O)[O-])cc3)o2)s/c1=C\C(=O)C(C)(C)C`, with active: 53.8%; and `Cc1ccc(-c2ccc(=O)n(CC(=O)NCCc3ccc(Cl)cc3)n2)cc1`, with 23.4%.
For `COc1ccccc1-c1noc(-c2ccc(N3CCN(C)CC3)c([N+](=O)[O-])c2)n1`, the inhibition is 4.88%.
Then `Cc1ccc(Cl)cc1N1CCN(C(=O)C2CCN(S(=O)(=O)Cc3ccccc3)CC2)CC1`, with 2.58%; and `COc1ccc(NC(=O)NCCN2CCN(c3cccc(Cl)c3)CC2)cc1`, with active: 36.1%.
The value for `COc1ccccc1CNC(=O)CCCn1c(=O)c2ccccc2n(Cc2ccc(F)cc2)c1=O` was 0.673%; that for `Cc1ccc(CCNC(=O)CN(c2cc(C)cc(C)c2)S(=O)(=O)c2c(C)noc2C)cc1` was -15.8%; that for `COc1ccccc1Nc1nc(-c2ccc(F)cc2)c2c(n1)-c1ccccc1OC2` was 24.9%.
The value for `COc1cccc(-n2ccn(CC(=O)NCc3ccc(C)cc3)c(=O)c2=O)c1` was 6.14%; that for `COc1ccccc1NC(=O)c1c(C)cc(C)nc1SCC(=O)Nc1ccc(C)c(C)c1` was -26.2%; that for `Cc1cc(C)c(NS(=O)(=O)c2ccc3c(c2)CC(C)N3C(=O)C2CCC2)c(C)c1` (stereo not drawn) was 4.53%.
On to `Cc1ccc(NC(=O)Nc2cccc(C)n2)cc1`, for which the inhibition came out at 3.2%.
Then `CCOc1ccc(C2CC(=O)NC(NC(=O)c3cccc(Cl)c3)=N2)cc1` (stereo not drawn), with 1.56%.
Then `CCN1CCC(NC(=O)Nc2cccc(C(F)(F)F)c2)CC1`, with active: 36.7%; and `CC(=O)c1ccc(NC(=O)c2cn(-c3ccccc3)nc2-c2ccc(Br)cc2)cc1`, with 1.05%.
Then `O=C(CCC1CCCC1)N1CCc2c([nH]c3ccccc23)C1c1ccc(F)cc1` (stereo not drawn), with 12.9%; and `CCOc1ccccc1NC(=O)CSc1nnnn1-c1ccc(C(=O)OC)cc1`, with active: 49.9%; and `COCCCNC(=O)C1C2C=CC3(CN(Cc4ccc(C)cc4)C(=O)C13)O2` (stereo not drawn), with active: 39.1%.
On to `CCc1nnc(SC(CC)C(=O)Nc2ccc(OC)c(Cl)c2)c2cc3occc3n12` (stereo not drawn), for which the inhibition came out at 13.9%.
Then `CC1CCCN(S(=O)(=O)c2ccc(C(=O)Nc3nnc(-c4ccccn4)o3)cc2)C1` (stereo not drawn), with active: 34.6%; and `CCc1cccc(C)c1NC(=O)C1CCN(S(=O)(=O)c2c(C)noc2/C=C/c2c(C)cc(C)cc2C)CC1`, with 12.9%.
Regarding `CCOc1ccc(NC(=O)NCCN2CCN(c3cccc(C)c3C)CC2)cc1`, the inhibition is 24.8%.
The value for `N#Cc1nc(COc2ccccc2Cl)oc1NCCc1ccccc1` was -6.71%; that for `Cc1ccc(Nc2ccc3cc(S(=O)(=O)N4CCCCC4)ccc3n2)cc1F` was 2.09%; that for `COc1ccc(C)cc1NC(=O)Cn1c(=O)oc2cc(S(=O)(=O)N3CCCCC3)ccc21` was -12.3%.
The value for `CCOC(=O)c1ccc(NC(=O)CSc2nc(-c3ccc(OC)cc3)cc(C(F)(F)F)c2C#N)cc1` was -1.01%; that for `COc1ccc(N(CC(=O)N2CCN(c3ccccc3)CC2)S(=O)(=O)c2c(C)nn(C)c2C)cc1` was 15.1%; that for `COc1ccc(-c2cc3nc(C)c(CCC(=O)NCc4ccccc4Cl)c(C)n3n2)c(OC)c1` was 18.2%.
The value for `CCOC(=O)c1c(C)oc2nc(C)nc(N3CCN(c4cc(Cl)ccc4C)CC3)c12` was -3.26%; that for `CCOC(=O)c1cc(OC(=O)c2cc(OC)c(OC)c(OC)c2)n(-c2ccccc2)n1` was 11%.
`CCOc1ccc(-n2c(SCC(=O)Nc3cc(C)on3)nc3c([nH]c4ccccc43)c2=O)cc1`: the inhibition is -0.502%.
Take `CCc1ccccc1N(C)C(=O)Cn1cnc2sc(C)c(S(=O)(=O)N3CCC(C)CC3)c2c1=O`: the inhibition was determined as 12.7%.
The value for `COc1cccc(CNC(=O)CCCn2nc(C)c3sc4ccccc4c3c2=O)c1` was 15.3%; that for `COc1ccc(NC(=O)c2cc3c(=O)n(Cc4cccs4)ccc3nc2C)cc1` was 4.93%; that for `COc1ccc(-n2c(C)nnc2SCc2nc(-c3ccc(OC)c(OC)c3)no2)cc1` was 3.8%.
The value for `COc1ccc(OC)c(NC(=O)Cn2c(=O)n(-c3cccc(C)c3)c(=O)c3c2c2cc(C)ccc2n3C)c1` was -2.67%; that for `Cc1ccc(NC(=O)c2c(NC(=O)c3ccc(F)cc3)sc3c2CCCC3)cc1C` was -7.36%; that for `CC(C)(C)OC(=O)N1CCC(c2c(C(=O)NCC3CCN(C4CCCC4)C3)cnn2-c2ccccc2Cl)CC1` (stereo not drawn) was active: 46.1%.
The value for `COc1cccc(-c2noc(COc3ccc(C(C)(C)C)cc3)n2)c1` was -4.21%.
With `Cc1ccccc1NS(=O)(=O)c1ccc2[nH]cc(C(=O)NC3CCCCC3)c(=O)c2c1`, the inhibition was -5.73%.
The value for `Cc1ccc(NC(=O)c2oc3ccc(S(=O)(=O)N4CCCCCC4)cc3c2C)c(C)c1` was 22.5%.
With `CCn1c(=O)c2cc(C(=O)NC3CCC(C)CC3)sc2c2ccccc21` (stereo not drawn), the inhibition is -9.02%.
The value for `CCn1c(C(=O)Nc2c(C)cccc2C)cc2sc(Cl)cc21` was 1.55%.
The value for `COc1cccc(NC(=O)N(Cc2c[nH]c3ccccc23)C2CCCCCC2)c1` was 18.1%; that for `CN(C(=O)c1cc2c(Cl)nc3ccccc3c2s1)c1cccc(C(F)(F)F)c1` was -5.54%.
Then `O=C(Cn1nc(-c2ccccc2)c2c(c1=O)CCCC2)Nc1ccc(F)c(Cl)c1`, with 9.65%; and `CCN(C(=O)CN1C(=O)COc2ccc(S(=O)(=O)N3CCOCC3)cc21)c1cccc(C)c1`, with -4.46%; and `O=C(NCCc1csc(-c2cccc(F)c2)n1)c1ccccc1C(F)(F)F`, with -0.709%.
As for `COC(=O)c1ccc(NC(=O)Cn2c(-c3nonc3N)nc3ccccc32)cc1`, the inhibition was -9.09%.
Then `CCCc1cnc2c(c1SCC(=O)Nc1c(C)cc(C)cc1C)c(=O)n(C)c(=O)n2C`, with 10.9%; and `CCc1nn(-c2ccccc2)c2nc(-c3ccc(O)cc3)c3cc(OC)c(OC)cc3c12`, with 5.41%.
